Measurements as given in the RNAGym collection of RNA variant scans (doi:10.1101/gad.245936.114).
Variants at the background level are over-represented here.

B1: tRNA (parent)
chain: CUCUCGGUAGCCAAGUUGGUUUAAGGCGCAAGACUUUAAUUUAUCACUACGAAAUCUUGAGAUCGGGCGUUCGACUCGCCCCCGGGAGAUUUUUUCCUCGAGCAA

Variants of: B1
Assay: nonsense suppression (GFP-seq) (ratio to wild type); higher = more function; SUP4oc tRNA, yeast GFP reporter sort-seq
In short: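 To measure nonsense suppression, tRNA variants from a library carrying ~3% random mutations were integrated into the yeast genome alongside RFP and a GFP ochre reporter under galactose control. Growth took place in raffinose/galactose medium supplemented with 80 mg/L adenine, followed by sorting into GFP/RFP bins and Illumina sequencing of each bin (phred ≥30). For each variant with ≥100 reads and ≥30 cells, the bin median GFP/RFP values were weighted by its estimated cell share per bin and referenced to the unmutated parent tRNA.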
A13U U16G C82U gave a nonsense suppression of 0.377. A13G A33G U57A A89G gave a nonsense suppression of at most 0.026. With A13G G65U G67C C81U the nonsense suppression was at most 0.026. In the case of A13U G26C, the nonsense suppression is reported as at most 0.026. In the case of A13U A14U U20A G28C C56A, the nonsense suppression is reported as at most 0.026. A13U G15U G26U gave a nonsense suppression of at most 0.026. Variant A13U U35C has a nonsense suppression of at most 0.026. In the case of A13G C34A, the nonsense suppression is reported as at most 0.026. For A13G C34G, the nonsense suppression was at most 0.026. A13U U16G A23U G69U gave a nonsense suppression of at most 0.026. In the case of A13U G65U G66C C82G, the nonsense suppression is reported as at most 0.026. Variant A13G U35C A60C C81U has a nonsense suppression of at most 0.026. Work on A14C C27G G28C yielded a nonsense suppression of at most 0.026. Variant A13U U16G A33U has a nonsense suppression of 0.0384. A13U A14U A23U U76G showed a nonsense suppression of at most 0.026. With A14C G15C C56U C81A the nonsense suppression was at most 0.026. A13G G32U G59C A74G gave a nonsense suppression of at most 0.026. Variant A13G C82A has a nonsense suppression of at most 0.026. In the case of A13G C82G, the nonsense suppression is reported as at most 0.026. A13G A54U G61A G66C showed a nonsense suppression of at most 0.026. A13G G67C C83G gave a nonsense suppression of at most 0.026. In the case of A14C G15U G18C U57C, the nonsense suppression is reported as at most 0.026. With A13U U21A the nonsense suppression was 0.803. Work on A13U C72U C77A yielded a nonsense suppression of at most 0.026. With A14C A74C the nonsense suppression was at most 0.026. With A13U C64U the nonsense suppression was 0.0285. In the case of A13U G85A, the nonsense suppression is reported as 1.2. Variant A13U U17A G78C has a nonsense suppression of at most 0.026. With A13U U16G the nonsense suppression was 0.819. For A13G C79G, the nonsense suppression was at most 0.026. With A13G G25C A30C A87G the nonsense suppression was at most 0.026. In the case of A13U U16A G85U, the nonsense suppression is reported as 0.173. A13G G19U G66C G73A A74C showed a nonsense suppression of at most 0.026. For A14C A31U A33U, the nonsense suppression was at most 0.026. With A13G C29G A62C U63A C80U G88A the nonsense suppression was at most 0.026. Variant A14C C29G has a nonsense suppression of at most 0.026. A13U A14U G65C showed a nonsense suppression of at most 0.026. A13G C75U gave a nonsense suppression of 0.305. In the case of A14C A33C U55A, the nonsense suppression is reported as at most 0.026. For A13U A54G C56A, the nonsense suppression was at most 0.026. A14C G15U G61U C75A showed a nonsense suppression of at most 0.026. In the case of A13G G18U A23U A24G C27U A31G C83G, the nonsense suppression is reported as at most 0.026. A14C A24C C81A gave a nonsense suppression of at most 0.026. Work on A13U A60C G67U yielded a nonsense suppression of at most 0.026. Work on A13U G15A U20C yielded a nonsense suppression of at most 0.026. For A13U A24G, the nonsense suppression was 0.96. A13U A24U showed a nonsense suppression of 0.863. Variant A13U C27U G85A has a nonsense suppression of 0.22. For A13G C29U A31U C56A U70G, the nonsense suppression was at most 0.026. Variant A13U G73U C79G has a nonsense suppression of at most 0.026. A13U G15A U76A gave a nonsense suppression of at most 0.026. A14C C56A G78A showed a nonsense suppression of at most 0.026. Work on A14C A33U U63G G88U yielded a nonsense suppression of at most 0.026. In the case of A13U C34G U35A U58G, the nonsense suppression is reported as at most 0.026. A14C A31C U58C C72A U76C C77G gave a nonsense suppression of at most 0.026. With A14C C68U G88A the nonsense suppression was at most 0.026. A13G C81A gave a nonsense suppression of at most 0.026. In the case of A13U U55C C56U G85C, the nonsense suppression is reported as at most 0.026. For A13U A31U, the nonsense suppression was 0.193. A13U A31C gave a nonsense suppression of at most 0.026. Work on A13G U16G C27A yielded a nonsense suppression of at most 0.026. With A13G C75A C81A the nonsense suppression was at most 0.026. Work on A13U A14G yielded a nonsense suppression of at most 0.026. In the case of A13G U17C A33G G73U C81U, the nonsense suppression is reported as at most 0.026. Work on A13G G15U U35G yielded a nonsense suppression of at most 0.026. Work on A14C A30U U63G yielded a nonsense suppression of at most 0.026. Work on A14C A24U G66U yielded a nonsense suppression of at most 0.026. Variant A14C C27U G66A has a nonsense suppression of at most 0.026. With A13U G26C U70C C77A the nonsense suppression was at most 0.026. A13G G18U gave a nonsense suppression of at most 0.026. In the case of A13G G18A, the nonsense suppression is reported as at most 0.026. In the case of A13G U58G G78C, the nonsense suppression is reported as at most 0.026. A13U U55A G65C G88U showed a nonsense suppression of at most 0.026. A13U G28U U58G showed a nonsense suppression of at most 0.026. A13G U17A G25U A87G gave a nonsense suppression of at most 0.026. Variant A13G G59C G86U has a nonsense suppression of at most 0.026. For A13U G65U, the nonsense suppression was 0.0575. In the case of A13U A54U U58A G61U, the nonsense suppression is reported as at most 0.026. With A14C C82U the nonsense suppression was at most 0.026. A13G C29U G32A G66A C83U gave a nonsense suppression of at most 0.026. Work on A13G G78C yielded a nonsense suppression of at most 0.026. A13U A31U A33G gave a nonsense suppression of at most 0.026. Variant A13G G59C has a nonsense suppression of at most 0.026.
